Data: PubChem BioAssay AID624296 (National Center for Advancing Translational Sciences (NCATS), 2012)
Hit rate of the full screen: of about 350,000 compounds, about 9,900 (2.8%) were called active. The inconclusive results got no clear call from the source; some entries with a clear call stand among them for comparison. Calls come from the whole dose curve; as a rule, active = well fitted activation curve with a large enough effect; inconclusive = small, poorly fitted or top-dose-only effect; inactive = no such curve, though single readings can be large or run the other way. No potency is given beside an inconclusive call; the fits are too rough.

experiment: A quantitative high throughput screen for small molecules that induce DNA re-replication in MCF 10a normal breast cells.; note: nearly all actives have a fitted effect of over 50% in size; for activity, positive = re-replication: % of control where 0% means no effect; settings: MCF 10A DNA re-replication, Hoechst nuclear intensity, 48 h; activity, positive = re-replication: at 46.1 µM (top of the series)
Potency is the fitted concentration of half-maximal effect; tags give direction and shape of the fitted curve.

| Structure (SMILES) | Potency | activity, positive = re-replication |
| --- | --- | --- |
| COC(=O)c1ccc(/C=N/NC(=O)CNc2cccc(C)c2)cc1 | inconclusive [activator, single point] |  |
| N#CC1C(=O)c2ccccc2C1c1ccccc1 (stereo not drawn) | active: 14.6 µM |  |
| CN1CCSc2ccc(C(=O)Nc3ccc(Cl)cc3)cc21 | inconclusive [activator, partial curve, poor fit] |  |
| COc1ccc(C=O)cc1COc1ccc([N+](=O)[O-])c(C)c1 | inconclusive [activator, single point] |  |
| Cc1onc(-c2ccccc2)c1C(=O)Nc1cc(C(F)(F)F)ccc1N1CCOCC1 | active: 5.01 µM |  |
| O=[N+]([O-])c1ccccc1C=CC=NN=Cc1ccccc1O | inactive |  |
| Cc1cc(-n2c(C)cc(C(=O)COc3ccccc3[N+](=O)[O-])c2C)no1 | inconclusive [activator, partial curve, poor fit] |  |
| O=C(NCCCN1CCOCC1)c1cc2c([nH]c3ccccc32)c(-c2cccc(Br)c2)n1 | active: 4.61 µM |  |
| CCOC(=O)c1oc2nc(CC(C)C)c3c(c2c1N)CCCC3 | inconclusive [activator, single point] |  |
| CCOc1ccccc1NC(=O)CN1CCC(C(=O)c2ccc(F)cc2)CC1 | inconclusive [activator, single point] |  |
| O=S(=O)(c1cccs1)N1CN(Cc2cccs2)c2nc3ccccc3nc21 | inconclusive [activator, partial curve, poor fit] |  |
| Cc1ccc(S(=O)(=O)Nc2ccc3c(c2)C(=O)N([C@H](C)CO)C[C@H](C)[C@@H](CN(C)Cc2ccc(-c4ccccc4)cc2)O3)cc1 | inconclusive [activator, full curve, poor fit] |  |
| CC(=O)Nc1ccc(-c2cc(-c3ccccc3)nc(-c3ccccc3)n2)cc1 | inconclusive [activator, single point] |  |
| O=C(Cc1nc2ccccc2[nH]1)c1ccc(Br)cc1 | inconclusive [activator, single point] |  |
| COc1ccc(CCNC(=O)C2CCC(=O)N(CC3CCCCC3)C2)cc1 (stereo not drawn) | inconclusive [activator, partial curve] |  |
| O=C(CN1CCOCC1)N1c2ccccc2Sc2ccccc21 | inactive |  |
| Oc1ccc(Cn2ccnc2)c2cccnc12 | inactive |  |
| CN(C)C/C=C/C(O)(c1ccccc1)c1ccccc1 | active: 16.4 µM |  |
| COc1ccc(NC(=O)c2nnn(Cc3cccc(F)c3)c2N)c(OC)c1 | inconclusive [activator, single point] |  |
| COc1ccc(CCNc2nc(C)nc3c2oc2ccccc23)cc1OC | inconclusive [activator, single point] |  |
| O=C(CNc1cc([N+](=O)[O-])ccc1NCCO)Nc1cccc(S(=O)(=O)N2CCCCC2)c1 | inconclusive [activator, single point] |  |
| OCC[C@H]1C[C@@H](O)[C@H](O)[C@@]2(CCCCO2)O1 | inconclusive [activator, full curve, poor fit] |  |
| Cc1ccc(-c2nnc3n2N=C(c2ccccc2Br)CS3)cc1 | inactive |  |

| Structure (SMILES) | Potency | activity, positive = re-replication |
| --- | --- | --- |
| Cc1cc(Nc2ccc3ccccc3c2)n2ncnc2n1 | inconclusive [activator, single point] |  |
| CC/C(=C\C(=O)c1ccncc1)Nc1ccc(Br)cc1 | inactive |  |
| N#Cc1c(-c2ccccc2)nc(-c2ccccc2)nc1N1CCOCC1 | inconclusive [activator, full curve, poor fit] |  |
| Cc1ccc(N=Cc2ccc(O)cc2O)cc1F | inconclusive [activator, single point] |  |
| O=c1oc2ccccc2c(NCc2ccc(Cl)cc2)c1[N+](=O)[O-] | inconclusive [activator, partial curve, poor fit] |  |
| CCN1C(=O)C(C(=O)NC(C)c2ccccc2)C2CC1(C)Oc1ccccc12 (stereo not drawn) | inconclusive [activator, single point] |  |
| Clc1ccc2c(c1)C1=C(C(c3ccncc3)O2)C(c2ccc(Br)cc2)n2ncnc2N1 (stereo not drawn) | inconclusive [activator, full curve] |  |
| Cc1ccccc1OCc1n[nH]c(=S)n1Cc1ccccc1 | inconclusive [activator, partial curve] |  |
| Cc1c(C(=O)N(C)CCCCN2CCOCC2)oc2c(F)cccc12 | inconclusive [activator, full curve, poor fit] |  |
| CCOC(=O)[C@H]1[C@H]2COc3ccc(Br)cc3[C@@H]2N2C(=O)c3c(C)cc(C)cc3NC(=O)[C@@]12C | inconclusive [activator, partial curve, poor fit] |  |
| COc1ccc(/C=C/CN2CCC(Oc3ccc(C(=O)N4CCCCC4)cc3)CC2)cc1 | inactive |  |
| COc1ccc(S(=O)(=O)N(C)c2ccc(C(=O)NC3CC3)cc2)cc1 | inactive |  |
| Cc1cccc(C(=O)Oc2ccc(/C=N/NC(=O)c3ccc(O)cc3)cc2)c1 | inconclusive [activator, partial curve, poor fit] |  |
| O=c1c2ccccc2nc(SCc2cn3ccsc3n2)n1-c1ccc(F)cc1 | inconclusive [activator, single point] |  |
| Cc1ccc(NC(=S)NC(=O)c2cncc(Br)c2)cc1Cl | inconclusive [activator, full curve, poor fit] |  |
| COc1cc(C(=O)OCC(=O)c2ccccc2)cc2c1OCCO2 | inactive |  |
| CCN(CC)S(=O)(=O)c1c(Br)cc(C)cc1Br | inactive |  |
| COC(=O)C1C(c2ccccc2)C=CC(c2ccccc2)C1C(=O)O (stereo not drawn) | inactive |  |
| OC(CNC1Cc2ccccc2C1)COc1ccc(F)cc1 (stereo not drawn) | inactive |  |
| Cn1c(=O)n(C)c2cc(NC(=O)c3ccc(F)cc3)ccc21 | inconclusive [activator, partial curve, poor fit] |  |
| O=[N+]([O-])c1cc(Br)c(O)c(/C=N/Nc2nnnn2-c2cccc3ccccc23)c1 | active: 4.11 µM |  |
| CCOc1ccccc1C(=O)Nc1ccc(S(=O)(=O)N2CCN(C)CC2)cc1 | inconclusive [activator, single point] |  |
| CC1CC(NC(=O)c2cc3c(=O)n4ccccc4nc3n2C)CC(C)(C)C1 (stereo not drawn) | active: 10.3 µM |  |

| Structure (SMILES) | Potency | activity, positive = re-replication |
| --- | --- | --- |
| CCn1c(SCC(=O)N2CCN(c3ccccc3)CC2)nnc1-c1cc2cc(Cl)ccc2o1 | inactive |  |
| Cc1ccc(S(=O)(=O)c2nc(S(C)(=O)=O)sc2NCC2CCCO2)cc1 (stereo not drawn) | inactive |  |
| O=C(Cn1cnc2ccccc2c1=O)Nc1nnc(SCc2ccc(Cl)cc2)s1 | inconclusive [activator, full curve, poor fit] |  |
| CCn1c(=O)n(CC)c2cc(N3CCCC3)c(NC(=O)c3cc(Cl)ccc3OC)cc21 | inconclusive [activator, single point] |  |
| O=C(c1cc(-c2cccc(O)c2)on1)N1CCOCC1 | inconclusive [activator, partial curve, poor fit] |  |
| COC(=O)c1ccc(C23CC4(C2)[C@H](CN(Cc2ccc(C(F)(F)F)cc2)[C@@H]4c2ccccc2)C3c2ccccc2)cc1 (stereo partly drawn) | inconclusive [activator, partial curve, poor fit] |  |
| Cc1nn(-c2cccc(Cl)c2)c2c1C(c1cccnc1)C(C#N)=C(N)O2 (stereo not drawn) | inconclusive [activator, partial curve, poor fit] |  |
| COC1(C)CC2C(CC1OC(=O)c1cc([N+](=O)[O-])cc([N+](=O)[O-])c1)C2(C)C (stereo not drawn) | inconclusive [activator, full curve, poor fit] |  |
| CCN(Cc1nc(-c2ccc(Cl)cc2)no1)CC1CCCO1 (stereo not drawn) | inconclusive [activator, partial curve, poor fit] |  |
| N=c1ccn(Cc2c(Cl)cccc2Cl)cc1 | inconclusive [activator, partial curve, poor fit] |  |
| CCOC(=O)c1[nH]c2ccc(Br)cc2c1NC(=O)CCN1CCCC(C)C1 (stereo not drawn) |  | inconclusive: 96.5% [activator] |
| N#Cc1cccc(NS(=O)(=O)c2ccccc2Cl)c1 | inconclusive [activator, single point] |  |
| CCOC(=O)c1c(S(=O)(=O)N2CCN(c3ccc(C(C)=O)cc3)CC2)c(C)n(C)c1C | inactive |  |
| FC(F)(F)c1ccccc1NC(=S)N1CCCCCC1 | inactive |  |
| C=CSc1sc(Cl)c(N(CC)CC)c1[N+](=O)[O-] | inconclusive [activator, single point] |  |
| Cc1cc(C(=O)COc2ccccc2Cl)c(C)n1-c1ccc2c(c1)OCO2 | inconclusive [activator, full curve, poor fit] |  |
| CCOc1ccc(C2Nc3cccc4cccc(c34)N2)cc1OC | inactive |  |
| Cc1ccc(/C=C/C(=O)NCC2COc3ccccc3O2)o1 (stereo not drawn) | inconclusive [activator, single point] |  |
| Cn1c2ccccc2c2cc(C(=O)NNC(=O)CCl)sc21 | active: 20.6 µM |  |
| O=C(Nc1ccc(Nc2ccccc2)cc1)c1c(Cl)cccc1Cl | active: 23.1 µM |  |
| CCOc1cc(NC(=O)c2ccco2)c(OCC)cc1NC(=O)Cc1cccc(OC)c1 | inconclusive [activator, partial curve, poor fit] |  |
| O=C(NCCN1CCN(c2ccccc2F)CC1)c1ccc2nc3ccccc3c(=O)n2c1 | inconclusive [activator, partial curve, poor fit] |  |
